# Laboratory results as given in the supplement of paper PMC11417369.
# The list shows a part of the results.
# Tested on: PfHDP1 homeodomain (GST-tagged)
# Assay: gcPBM binding intensity (ln(normalized median fluorescence intensity)); higher = stronger DNA binding
# Method in brief: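 Binding intensity is the highest Masliner-normalised natural-log median intensity over replicate spots in either probe orientation. To obtain it, GST-tagged P. falciparum DNA-binding domains made in E. coli were incubated for 1 h on an Agilent 4 × 180k array of primer-extended double-stranded 36-bp intergenic genomic probes plus negative controls. Detection used Alexa488 anti-GST antibody with scanning at 488 nm.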
row,Sequence,gcPBM binding intensity (ln)
1,ATCGCGAAGTAGCATTCACACACAGCAAAATATATA [CACACA_site9162],6.65
2,AATGGTATAAACAATACACACATAATATAAATATTG [CACACA_site6878],6.42
3,TTATATATAAATGTGTGTACTTATAAAATAATCATT [XGTACX_site5370],6.5
4,ATAGGCAAAAAGTGTACACATTCATTTATATAAATA [CACACA_site4480],7.08
5,AGATCTATTATTTTTTGTACTTATATATAAACTTAA [XGTACX_site1737],6.6
6,CATATATAAATATGTACACACATATGTATGATCTCA [CACACA_site3868],6.36
7,TTATTTATAAGTAATATTATATATTCTTTTAATACA [CACACA_negctrl_site471],5.92
8,TTCTATATATTTGGAAGTACATTATATTTATTTTTT [XGTACX_site3172],6.18
9,TAAAATTTTTGTTTTTGTACGAAACATCAATTTTAC [XGTACX_site4963],6.23
10,TAACATTAAAATAAAAGTACTTAATAATATTAAGTA [XGTACX_site5920],6.23
11,AAAAAAAATATCTATGCATGTAATATTATGATATTG [TGCATGCA_site546],6.39
12,TTAATAATAAATGAAAGTACATATAAAAAAAAAAAA [XGTACX_site717],6.4
13,CGTATAACATATGACACACACACATACATACACAAA [CACACA_site1803],7.04
14,GATTTATATAATTCAAGTACTAAAAATATTTTTAAT [XGTACX_site5285],6.51
15,ATACATATATGTGTGTGTACATAAATGTATATATTT [XGTACX_site6242],6.63
16,GTATCTTTCAAAATATGTACATATATATATGTGTGT [XGTACX_site3512],7.14
17,AACTTTATTCCTAATTGTACACATATATATATATAT [XGTACX_site6823],9.08
18,GCATGGAACCATATATGTACATATATAAATAAATAA [XGTACX_site4996],6.85
19,AATAGTAAAAGATATACACACACCAAAAAATAGAAT [CACACA_site2289],7.32
20,ATTATACATATGTATGCACACATACATACACATATA [CACACA_site9155],9.74
21,ATATATATATGTTTATGTACTTATAATAATATAACT [XGTACX_site4828],8.33
22,TAATTTAAGAAAAAATGTACACAAATATAATAATAG [XGTACX_site8317],6.98

row,Sequence,gcPBM binding intensity (ln)
1,AATGTATTTAAACTGACACACAAAAAAAATAAAATA [CACACA_site2138],6.91
2,ATATTGTAAGTAAACACACACACATCTATAGGTATA [CACACA_site6462],6.77
3,TTTAAAATATTAAAATGTACATATATATATATATAT [XGTACX_site6784],9.27
4,ACATAAATATATTTTTCACACATCCTTAGTTATGAA [CACACA_site5179],6.86
5,TATATATATATATATACACACATACATATATATATT [CACACA_site8185],9.43
6,AAATATAAAAAATATACACACATATATAATATATAT [CACACA_site2963],6.52
7,TAAGACTATTAAAAAATTGAGTACATGAACTGTTCA [GTGCAC_negctrl_site670],5.93
8,TGTATATTTGATTCATGTACATATTTTATTTTAACT [XGTACX_site5169],6.49
9,CCTATATAATTATAATGTACTTGTAAAAAATATAAC [XGTACX_site2864],6.77
10,CAGATTTATTCAAACGCATGCTGTTTTAAAATAAAA [TGCATGCA_site874],6.15
11,TATTCAATACTTAATGCACACAATAAAAAAAATATG [CACACA_site2467],10.5
12,ACGATAACATTTTTACGTACATATATTTTCACGGAG [XGTACX_site8764],6.46
13,TTTTCAAAAATATATACACACATGCATATTACGGTG [CACACA_site775],7.02
14,TACATGATAAGATGTAGTACATAAAAGAATAAATTA [XGTACX_site787],6.49
15,ATATATATATATAAGCGTACGCGTAGTTAAATTAAT [XGTACX_site7693],9.12
16,TATGTTATATTGGACACACACAATAAACATTATGTA [CACACA_site1657],6.27
17,ACAAAAAAAATAAGCACACATATATATATATATATA [CACACA_site816],9.27
18,ATATTGACAGGAAAAATTTTCTTTGAATCTTTAAAA [CACACA_negctrl_site1191],6.11
19,TAAAATATTTCAAAGGTGCAATGATAATTTAAGACG [GTGCAC_site9609],8.47
20,AAATGAAAAATAAGGAAAAAAAAAAAAAAAAAAAAA [CACACA_negctrl_site1715],6.31
21,ATAATATTTATAAATTGTACTAATGTTCAATAATTA [XGTACX_site7284],6.25
22,TTTTGTCGGAAATCGGATAAGAAGAAAAAAAATAAT [GTGCAC_negctrl_site594],6.61

row,Sequence,gcPBM binding intensity (ln)
1,AAAAAAAAAAAAAGTACACACATACATATAAATATA [CACACA_site8533],6.38
2,TTCACTCCATATTATACACACACACTAATGAAAAAA [CACACA_site8991],7.24
3,CCACTAATTATGTGCACACAAATTAAAGGTCTACAA [CACACA_site4259],11.4
4,AAATTTTATAAAGGAACACACATTTTTTTTTTTTCT [CACACA_site2368],6.13
5,GAAATAATTTTTATTTGTACACACATACATATATAT [XGTACX_site1862],6.63
6,TTATTCATTTCGAAAAGTACAAATTCTGTTTATTAT [XGTACX_site6892],6.4
7,AAATTTTTTGTTCAATGTACTTTTTTATTATATTTT [XGTACX_site5298],6.49
8,TCTACTATTATATATTGTACAAATGATACTTATATT [XGTACX_site1819],6.61
9,ATTTTTTAAATTTAAACACACATTTTGTATATGTTT [CACACA_site1654],6.84
10,GATATATAATATAATACACACATTTTATGAATGTAA [CACACA_site24],6.54
11,AAAAAAAAAAAACATACACACATACATACAGATATA [CACACA_site4681],6.56
12,TTCTTTTTGAAACACACACACACAAGAAAATATATA [CACACA_site3110],7.04
13,TTCTATTTTATATGTGCACACATATACACCCACAAA [CACACA_site1130],10.9
14,TTTCACTACACAAATACACACAAAAATATATGTGCA [CACACA_site2632],7.11
15,CGTTATATCAAAGGAGTGCATTATGAATACGTTTTA [GTGCAC_site9837],8.79
16,AGTGAATATCTAAAATGTACATAAATAAATAAATAA [XGTACX_site8293],6.74
17,AATATATTATATATATGTACATAATGTGTAATACCT [XGTACX_site2845],7
18,TTAAAATTTTTCAAAAGTACATAAATAATATATATT [XGTACX_site4694],6.43
19,AAAAAAAATTCATATTGTACTTTTAAATTAAAGAAA [XGTACX_site4521],6.19
20,TTTATTTGTTCATGCGTGCACTTGATAACAATGTAC [GTGCAC_site9561],8.53
21,TTTTTTTTTGTTAAAGTGCATATATTAAATTTTCCT [GTGCAC_site9677],7.82
22,GGAAAAAAATATAAAAGTACTTTTTATTTATTTTAT [XGTACX_site7418],6.2

row,Sequence,gcPBM binding intensity (ln)
1,TATAATTAAAATTTGTGTACGTATGACAAAACATTT [XGTACX_site7072],6.42
2,AGATACAAGCACTATAGTACACATACTAAAAATATA [XGTACX_site5849],6.48
3,TTTCCTTACCCTTTCCTGGTGTAGAAATTATACTCT [TGCATGCA_negctrl_site116],6.53
4,AAAAAAATAACAAAAGTGCATTTTTATGAGTTATCT,7.2
5,ATATATAATTAATAAAGTACATTAATTATTTCTTTT [XGTACX_site3034],5.99
6,TTCCTTCAAAATTTAAGTAATAAGATAAAAATATAA [CACACA_negctrl_site1696],6.29
7,CACAGATAAATTAACACACACACACGGATATTTATA [CACACA_site7788],6.69
8,ATGTATACAAATATATGTACGTATGTTCTCTTCTTT [XGTACX_site7865],6.6
9,TAAAGAGTTACCATTTGTACTTACGCACACATAAAA [XGTACX_site3145],6.8
10,TTTTTATGTTATCAAATAAATATAAATATAATTCAT [CACACA_negctrl_site1522],5.89
11,TATATTTGAAATATATGTACTTATAATACAGTTTAA [XGTACX_site8039],6.42
12,TTATATGTATTTCTTTGTACACATTTTTATATATAT [XGTACX_site1462],7.16
13,TAAATTTTATAAATCTGTACATATGAGCAAGAACAT [XGTACX_site7400],8.01
14,TATCATTTTTTTAAAACACACATAATAATATAAATA [CACACA_site2845],6.66
15,CACTTCAAAAAAATATGTACACATATATATATATAT [XGTACX_site3075],9.39
16,ATTATGCACCAACACACACACACACCCCTAAAAAAT [CACACA_site2568],11.5
17,GGTAATAAACAATGAAGTACGTAAAGGTAAAATATT [XGTACX_site2647],7.27
18,TTATTAGGTATATATGCACACAATACCCAAAACAAC [CACACA_site4221],9.98
19,TATTTTCAAAAATATACACACACATAAATATATGTA [CACACA_site8160],6.5
20,ATTTAATTTTCATGATGTACTATAGTTTAATGCACA [XGTACX_site1624],9.18
21,TAATAATCAAACTATACACACATAAATAGATATATA [CACACA_site6220],6.52
22,TGTAAATATAAATGTAATAAATATGTAAAAATAAAT [XGTACX_negctrl_site171],6.35
